# Results as given in patent publication US20250025454A1 (priority 2021, published 2025).
# Test: Uninfected host cell cytotoxicity counter screen
# Type: cell-based
# Details: human, uninfected HeLa-ACE2 cells
smiles,measurement,value
CCC(CC)COC(=O)[C@H](C)N[P@](=O)(OC[C@H]1O[C@@](C#N)(c2ccc3c(N)ncnn23)[C@H](O)[C@@H]1O)Oc1ccccc1 [Remdesivir],CC50 at 24 h,8.87 µM
